# Reference: article PMC3026800, “Mechanism of Inhibition of Enveloped Virus Membrane Fusion by the Antiviral Drug Arbidol” (PLoS ONE, 2011)
# Test system: HCVpp
# Assay: Membrane fusion assay: lipid mixing between pseudoparticles and R18-labeled liposomes
# Conditions: for Inhibition of fusion with Arb: HCVpp 1a, 37°C, pH 5.0
smiles,measurement,setting,value
"CCOC(=O)c1c(CSc2ccccc2)n(C)c2cc(Br)c(O)c(CN(C)C)c12.Cl [Arb, 1H-indole-3-carboxylic acid, 6-bromo-4-[(dimethylamino)-methyl]-5-hydroxy-1-methyl-2-[(phenylthio)methyl]-, ethyl ester, monohydrochloride]",Fusion inhibition,Arb 11.3 µM pre-incubated with either HCVpp or liposomes,ca. 10%
same,Inhibition of fusion with Arb,"Arb 11.3 µM pre-incubated with HCVpp 1 min, then liposomes 1 min",5±7%
same,Inhibition of fusion with Arb,Arb 11.3 µM pre-incubated with HCVpp/liposomes together 2 min,46±12%
same,Inhibition of fusion with Arb,"Arb 11.3 µM pre-incubated with liposomes 1 min, then HCVpp 1 min",13±11%
